# Assay results: the supplement of paper PMC8728848
# This is one part of the list.
# Experiments:
# Assay in all cases: glycan array binding signal (z-score within array); higher = stronger binding
# Conditions in all cases: glycan notation: IUPAC condensed, linker removed
# Gal(b1-2)Gal = target: Gal(b1-2)Gal
# Method in brief: (§1)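 The binding signal is a Z-score computed within each array. Data were drawn from 3228 arrays in the Consortium for Functional Glycomics database, restricted to those with a known protein sequence. Scores were averaged over arrays of the same protein sequence at different concentrations or buffers, and over linkers, and negative values can be taken as non-binding.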
# Gal(b1-3)Gal = target: Gal(b1-3)Gal
# Method in brief: as §1
# Gal(b1-3)Gal(b1-4)GlcNAc = target: Gal(b1-3)Gal(b1-4)GlcNAc
# Method in brief: as §1
# Gal(b1-3)GalNAc = target: Gal(b1-3)GalNAc
# Method in brief: as §1
# [1] = target: Gal(b1-3)GalNAc(a1-3)[Fuc(a1-2)]Gal(b1-4)Glc
# Method in brief: as §1
# [2] = target: Gal(b1-3)GalNAc(a1-3)[Fuc(a1-2)]Gal(b1-4)GlcNAc
# Method in brief: as §1
# Gal(b1-3)GalNAc(b1-3)Gal = target: Gal(b1-3)GalNAc(b1-3)Gal
# Method in brief: as §1
# [3] = target: Gal(b1-3)GalNAc(b1-3)Gal(a1-4)Gal(b1-4)Glc
# Method in brief: as §1
# [4] = target: Gal(b1-3)GalNAc(b1-4)Gal(b1-4)Glc
# Method in brief: as §1
# [5] = target: Gal(b1-3)GalNAc(b1-4)[Neu5Ac(a2-3)]Gal(b1-4)Glc
# Method in brief: as §1
# Gal(b1-3)GlcNAc = target: Gal(b1-3)GlcNAc
# Method in brief: as §1
# [6] = target: Gal(b1-3)GlcNAc(a1-3)Gal(b1-4)GlcNAc
# Method in brief: as §1
# [7] = target: Gal(b1-3)GlcNAc(a1-6)Gal(b1-4)GlcNAc
# Method in brief: as §1
# Gal(b1-3)GlcNAc(b1-2)Man = target: Gal(b1-3)GlcNAc(b1-2)Man
# Method in brief: as §1
# [8] = target: Gal(b1-3)GlcNAc(b1-2)Man(a1-3)[Gal(b1-3)GlcNAc(b1-2)Man(a1-6)]Man(b1-4)GlcNAc(b1-4)GlcNAc
# Method in brief: as §1
# [9] = target: Gal(b1-3)GlcNAc(b1-2)Man(a1-3)[Gal(b1-3)GlcNAc(b1-2)Man(a1-6)]Man(b1-4)GlcNAc(b1-4)[Fuc(a1-6)]GlcNAc
# Method in brief: as §1
# [10] = target: Gal(b1-3)GlcNAc(b1-2)Man(a1-3)[GlcNAc(b1-4)][Gal(b1-3)GlcNAc(b1-2)Man(a1-6)]Man(b1-4)GlcNAc(b1-4)GlcNAc
# Method in brief: as §1
# [11] = target: Gal(b1-3)GlcNAc(b1-2)[Gal(b1-3)GlcNAc(b1-6)]Man(a1-6)[Gal(b1-3)GlcNAc(b1-2)Man(a1-3)]Man(b1-4)GlcNAc(b1-4)GlcNAc
# Method in brief: as §1
# [12] = target: Gal(b1-3)GlcNAc(b1-3)Gal(b1-3)GlcNAc
# Method in brief: as §1
# [13] = target: Gal(b1-3)GlcNAc(b1-3)Gal(b1-4)Glc
# Method in brief: as §1
# [14] = target: Gal(b1-3)GlcNAc(b1-3)Gal(b1-4)GlcNAc
# Method in brief: as §1
# [15] = target: Gal(b1-3)GlcNAc(b1-3)Gal(b1-4)GlcNAc(b1-2)Man(a1-3)[Gal(b1-3)GlcNAc(b1-3)Gal(b1-4)GlcNAc(b1-2)Man(a1-6)]Man(b1-4)GlcNAc(b1-4)GlcNAc
# Method in brief: as §1
# [16] = target: Gal(b1-3)GlcNAc(b1-3)Gal(b1-4)GlcNAc(b1-2)[Gal(b1-3)GlcNAc(b1-3)Gal(b1-4)GlcNAc(b1-6)]Man(a1-6)[Gal(b1-3)GlcNAc(b1-3)Gal(b1-4)GlcNAc(b1-2)Man(a1-3)]Man(b1-4)GlcNAc(b1-4)[Fuc(a1-6)]GlcNAc
# Method in brief: as §1
# [17] = target: Gal(b1-3)GlcNAc(b1-3)Gal(b1-4)GlcNAc(b1-3)Gal(b1-4)GlcNAc(b1-2)[Gal(b1-3)GlcNAc(b1-3)Gal(b1-4)GlcNAc(b1-3)Gal(b1-4)GlcNAc(b1-6)]Man(a1-6)[Gal(b1-3)GlcNAc(b1-3)Gal(b1-4)GlcNAc(b1-3)Gal(b1-4)GlcNAc(b1-2)Man(a1-3)]Man(b1-4)GlcNAc(b1-4)[Fuc(a1-6)]GlcNAc
# Method in brief: as §1
# [18] = target: Gal(b1-3)GlcNAc(b1-3)Gal(b1-4)GlcNAc(b1-6)[Gal(b1-3)GlcNAc(b1-3)]Gal(b1-4)Glc
# Method in brief: as §1
# [19] = target: Gal(b1-3)GlcNAc(b1-3)Gal(b1-4)[Fuc(a1-3)]GlcNAc
# Method in brief: as §1
# [20] = target: Gal(b1-3)GlcNAc(b1-3)Gal(b1-4)[Fuc(a1-3)]GlcNAc(b1-6)[Gal(b1-3)GlcNAc(b1-3)]Gal(b1-4)Glc
# Method in brief: as §1
# [21] = target: Gal(b1-3)GlcNAc(b1-3)GalNAc
# Method in brief: as §1
# [22] = target: Gal(b1-3)GlcNAc(b1-6)Gal(b1-4)GlcNAc
# Method in brief: as §1
# [23] = target: Gal(b1-3)GlcNAc(b1-6)GalNAc
# Method in brief: as §1
# [24] = target: Gal(b1-3)GlcNAc(b1-6)[Gal(b1-3)]GalNAc
# Method in brief: as §1
# Gal(b1-3)GlcNAc6S = target: Gal(b1-3)GlcNAc6S
# Method in brief: as §1
# [25] = target: Gal(b1-3)[Fuc(a1-4)]GlcNAc
# Method in brief: as §1
# [26] = target: Gal(b1-3)[Fuc(a1-4)]GlcNAc(b1-2)Man
# Method in brief: as §1
# [27] = target: Gal(b1-3)[Fuc(a1-4)]GlcNAc(b1-2)Man(a1-3)[Gal(b1-3)[Fuc(a1-4)]GlcNAc(b1-2)Man(a1-6)]Man(b1-4)GlcNAc(b1-4)[Fuc(a1-6)]GlcNAc
# Method in brief: as §1
# [28] = target: Gal(b1-3)[Fuc(a1-4)]GlcNAc(b1-3)Gal(b1-3)[Fuc(a1-4)]GlcNAc
# Method in brief: as §1
# [29] = target: Gal(b1-3)[Fuc(a1-4)]GlcNAc(b1-3)Gal(b1-4)[Fuc(a1-3)]GlcNAc
# Method in brief: as §1
# [30] = target: Gal(b1-3)[Fuc(a1-4)]GlcNAc(b1-6)GalNAc
# Method in brief: as §1
# [31] = target: Gal(b1-3)[GlcNAc(b1-6)]GalNAc
# Method in brief: as §1
# [32] = target: Gal(b1-3)[Neu5Ac(a2-6)]GalNAc
# Method in brief: as §1
# [33] = target: Gal(b1-3)[Neu5Ac(a2-6)]GlcNAc(b1-4)Gal(b1-4)Glc
# Method in brief: as §1
# [34] = target: Gal(b1-3)[Neu5Ac(b2-6)]GalNAc
# Method in brief: as §1
# Gal(b1-4)Gal = target: Gal(b1-4)Gal
# Method in brief: as §1
# [35] = target: Gal(b1-4)GalNAc(a1-3)[Fuc(a1-2)]Gal(b1-4)GlcNAc
# Method in brief: as §1
# [36] = target: Gal(b1-4)GalNAc(b1-3)[Fuc(a1-2)]Gal(b1-4)GlcNAc
# Method in brief: as §1
binder,measurement,setting,value
LngA (Escherichia coli) (protein) MLSVYNRTQKFKAEARKKIAKYHELRKQRGMSLLEVIIVLGIIGTIAAGVVILAQRAFDSRAVTDLVTNTNTVRVRMKDAYQRDGKYPDFVDPLSLTANTIKTDTSGIPAAQLVQLGKITPDEVRNNISGDFIAIGGALTSNGAQVKKGFAIELNGLSQEQCRSILGQVGNNWEYVAIGTSASGSYAMTATGVDMSVAASTTVLRSLGNNGQTTLTADKILSTCTAQVNSITLGSR,glycan array binding signal (z-score),Gal(b1-2)Gal,2.94
same,glycan array binding signal (z-score),Gal(b1-3)Gal,-0.316
same,glycan array binding signal (z-score),Gal(b1-3)Gal(b1-4)GlcNAc,-0.345
same,glycan array binding signal (z-score),Gal(b1-3)GalNAc,-0.143
same,glycan array binding signal (z-score),[1],-0.47
same,glycan array binding signal (z-score),[2],-0.315
same,glycan array binding signal (z-score),Gal(b1-3)GalNAc(b1-3)Gal,-0.455
same,glycan array binding signal (z-score),[3],-0.274
same,glycan array binding signal (z-score),[4],-0.145
same,glycan array binding signal (z-score),[5],-0.414
same,glycan array binding signal (z-score),Gal(b1-3)GlcNAc,-0.367
same,glycan array binding signal (z-score),[6],-0.545
same,glycan array binding signal (z-score),[7],-0.396
same,glycan array binding signal (z-score),Gal(b1-3)GlcNAc(b1-2)Man,-0.424
same,glycan array binding signal (z-score),[8],-0.329
same,glycan array binding signal (z-score),[9],-0.459
same,glycan array binding signal (z-score),[10],-0.39
same,glycan array binding signal (z-score),[11],-0.375
same,glycan array binding signal (z-score),[12],-0.304
same,glycan array binding signal (z-score),[13],-0.431
same,glycan array binding signal (z-score),[14],-0.414
same,glycan array binding signal (z-score),[15],-0.293
same,glycan array binding signal (z-score),[16],1.4
same,glycan array binding signal (z-score),[17],1.52
same,glycan array binding signal (z-score),[18],-0.487
same,glycan array binding signal (z-score),[19],-0.483
same,glycan array binding signal (z-score),[20],-0.463
same,glycan array binding signal (z-score),[21],-0.398
same,glycan array binding signal (z-score),[22],-0.512
same,glycan array binding signal (z-score),[23],-0.486
same,glycan array binding signal (z-score),[24],1.41
same,glycan array binding signal (z-score),Gal(b1-3)GlcNAc6S,-0.169
same,glycan array binding signal (z-score),[25],-0.113
same,glycan array binding signal (z-score),[26],1.12
same,glycan array binding signal (z-score),[27],1.02
same,glycan array binding signal (z-score),[28],-0.572
same,glycan array binding signal (z-score),[29],-0.462
same,glycan array binding signal (z-score),[30],-0.438
same,glycan array binding signal (z-score),[31],-0.356
same,glycan array binding signal (z-score),[32],-0.585
same,glycan array binding signal (z-score),[33],-0.323
same,glycan array binding signal (z-score),[34],-0.499
same,glycan array binding signal (z-score),Gal(b1-4)Gal,0.16
same,glycan array binding signal (z-score),[35],-0.479
same,glycan array binding signal (z-score),[36],-0.632
